Results reported in PubChem BioAssay AID504339 (National Center for Advancing Translational Sciences (NCATS), 2011).
Hit rate of the full screen: of about 390,000 compounds, about 17,000 (4.4%) were called active. Inconclusive means that the source gave no clear call. Such entries were picked first, then a sample of the others. The call rests on the fitted dose curve; in most records, active means well fitted inhibition curve with a large enough effect; inconclusive means small, poorly fitted or top-dose-only effect; inactive means no such curve, though single readings can be large or run the other way. Potencies beside an inconclusive call are fits to weak or partial responses and may not hold up.

target: Lysine-specific demethylase 4A (Homo sapiens) (UniProt O75164); test: qHTS Assay for Inhibitors of JMJD2A-Tudor Domain; conditions: AlphaScreen JMJD2A-Tudor / H3K4me3 peptide binding; activity change, negative = inhibition: at 114 µM (top of the series); further: nearly all actives have a fitted effect of over 50% in size
Chain of UniProt O75164 (O75164 whole entry, looked up, the tested form may be a part): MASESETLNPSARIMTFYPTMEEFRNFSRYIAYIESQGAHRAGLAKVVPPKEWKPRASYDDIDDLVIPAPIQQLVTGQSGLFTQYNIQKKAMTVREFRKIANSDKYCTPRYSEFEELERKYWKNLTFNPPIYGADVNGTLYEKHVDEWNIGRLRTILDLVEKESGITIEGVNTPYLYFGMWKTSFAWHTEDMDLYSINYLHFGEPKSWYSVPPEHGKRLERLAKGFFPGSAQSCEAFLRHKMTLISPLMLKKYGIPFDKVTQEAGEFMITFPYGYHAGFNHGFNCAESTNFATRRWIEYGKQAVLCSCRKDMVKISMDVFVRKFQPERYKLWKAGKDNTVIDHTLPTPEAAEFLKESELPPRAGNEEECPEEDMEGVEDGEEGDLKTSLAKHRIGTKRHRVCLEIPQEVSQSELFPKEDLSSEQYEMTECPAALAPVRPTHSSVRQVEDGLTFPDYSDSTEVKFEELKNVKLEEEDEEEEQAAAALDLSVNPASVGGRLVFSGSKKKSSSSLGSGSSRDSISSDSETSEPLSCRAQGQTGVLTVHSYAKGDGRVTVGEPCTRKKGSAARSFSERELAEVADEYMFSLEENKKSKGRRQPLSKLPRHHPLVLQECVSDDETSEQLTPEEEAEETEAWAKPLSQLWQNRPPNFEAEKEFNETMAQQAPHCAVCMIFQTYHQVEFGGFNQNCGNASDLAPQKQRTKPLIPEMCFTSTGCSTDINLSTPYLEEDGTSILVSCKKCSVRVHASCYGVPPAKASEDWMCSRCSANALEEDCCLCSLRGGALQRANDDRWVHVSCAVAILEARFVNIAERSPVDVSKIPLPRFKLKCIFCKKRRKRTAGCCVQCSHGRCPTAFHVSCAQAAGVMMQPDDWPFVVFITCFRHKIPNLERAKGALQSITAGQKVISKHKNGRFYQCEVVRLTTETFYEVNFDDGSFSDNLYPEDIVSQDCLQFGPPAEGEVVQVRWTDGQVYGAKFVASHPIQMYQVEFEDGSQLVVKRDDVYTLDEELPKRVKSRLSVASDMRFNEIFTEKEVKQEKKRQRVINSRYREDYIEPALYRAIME
On the % scale 0 is the no-effect control and ±100 the full control effect; potency means the concentration at half of the fitted maximal effect; tags describe the fitted curve by direction and shape.

Potency, inconclusive:
CC(=O)c1ccc(-c2ccc(/C=C(/Sc3n[nH]c(C)n3)C(=O)O)o2)cc1 100 µM [inhibitor, single point], Cc1ccc(Nc2nc(NCc3ccco3)nc3nccnc23)c(C)c1 63.1 µM [inhibitor, partial curve, poor fit], CCOC(=O)N1CCc2c(sc(NCc3cc(OC)ccc3OC)c2C(=O)Nc2cc(OC)ccc2OC)C1 11.2 µM [inhibitor, full curve], CN(C(=O)COC(=O)CCc1c[nH]c2ccccc12)C(c1ccccc1)c1ccccc1 17.8 µM [inhibitor, full curve], CCn1c(SCC(=O)NNC(=O)c2ccc(OC)cc2)nnc1C1CC1 11.2 µM [inhibitor, partial curve], Cc1cccc(N2NC(=O)/C(=C/c3ccc(-c4ccc(Cl)c(C(=O)O)c4)o3)C2=O)c1 56.2 µM [inhibitor, partial curve], COc1cccc(C2=CC(c3ccccc3F)n3ncc(C(=O)Nc4ccc(F)cc4)c3N2)c1 (stereo unspecified) 10 µM [inhibitor, full curve], N#C/C(=C(/O)c1ccc(-c2cccc([N+](=O)[O-])c2)o1)c1nc2ccccc2s1 44.7 µM [inhibitor, partial curve], c1ccc(CN2CCC(=NNc3nc4ccccc4[nH]3)CC2)cc1 20 µM [inhibitor, full curve, poor fit], COC(=O)Cc1c[nH]c2cccc(OCC(O)CN(Cc3ccc([N+](=O)[O-])cc3)C(C)(C)C)c12 (stereo unspecified) 14.1 µM [inhibitor, full curve], COc1cc(C2Nc3ccc4ncccc4c3C3=C2C(=O)CCC3)ccc1O (stereo unspecified) 100 µM [inhibitor, single point], CCC12CN3CC(C)(CN(C1)C3c1c(C)[nH]c3ccccc13)C2=O (stereo unspecified) 50.1 µM [inhibitor, partial curve], Cc1cnc2c(C(=O)O)cnn2c1 89.1 µM [inhibitor, single point], Cc1cc(=O)c(C(=O)O)nn1-c1ccccc1F 39.8 µM [inhibitor, single point], Oc1ccc(-c2nc3cnccn3c2Nc2ccc3c(c2)OCCO3)cc1 50.1 µM [inhibitor, partial curve], COCCNC(=O)Nc1ccc2nc(C)sc2c1 0.708 µM [inhibitor, full curve, poor fit], O=C(c1ccc(Cn2c(=S)[nH]c3ccc(Br)cc3c2=O)cc1)N1CCN(C2CCCCC2)CC1 39.8 µM [inhibitor, partial curve], C=CCOC(=O)/C=C/C(=O)NC(N)=O 89.1 µM [inhibitor, single point], O=C(/C(C=Nc1cc2c(oc1=O)CCCC2=O)=C(\O)c1ccccc1)c1ccccc1 50.1 µM [inhibitor, partial curve], COc1cc(NC(=O)c2ccc(C)cc2)c(OC)cc1NC(=O)CN1CCCCC1 39.8 µM [inhibitor, partial curve], COc1ccc(N=C2NC(=O)/C(=C\c3ccco3)S2)cc1 8.91 µM [inhibitor, full curve, poor fit], CCOC(=O)c1c(C)n(C)c2cc([N+](=O)[O-])c(O)c([N+](=O)[O-])c12 17.8 µM [inhibitor, full curve], Cc1cc(Cl)cc(C)c1OCCCCn1ccnc1 56.2 µM [inhibitor, partial curve, poor fit], CC(=O)c1cc(C#N)c(N2CCCC2)nc1C 22.4 µM [inhibitor, single point], O=C(CCCN1C(=O)/C(=C/c2ccccc2)SC1=S)Nc1ccc(O)cc1 39.8 µM [inhibitor, partial curve]

Potency, active:
COc1cccc2cc3c(=O)n(-c4ccccc4)nc-3oc12 44.7 µM, Cc1nc(C)c(C(=O)Nc2nc3c(C)cccc3s2)o1 35.5 µM, Cn1nc(C(=O)NCc2ccccn2)c2ccccc2c1=O 22.4 µM, O=C(CN(C1CCCCC1)C1CCCCC1)N1CCc2ccccc2C1 6.31 µM, NC(=S)N/N=C/c1c(O)ccc2ccccc12 56.2 µM, CCOC(=O)c1cc2c(ccn2C)n1CC(=O)N1CCC(Cc2ccccc2)CC1 35.5 µM, O=C(CCNC(=O)c1ccccc1)Nc1cccnc1 44.7 µM, Cc1cc(C(=O)N/N=C/c2cc(Cl)cc([N+](=O)[O-])c2O)c2ccccc2n1 56.2 µM, CC1(CC(=O)Nc2ccccc2)NC(=S)N(c2ccccc2)N1 (stereo unspecified) 5.62 µM, CCOc1cc(CNCc2ccccn2)ccc1OCC(=O)NC1CCCCC1 56.2 µM

Activity change, negative = inhibition, inactive:
COc1ccc(OC)c(N(C(=O)c2snc(C(N)=O)c2N)C(C(=O)NCc2ccccc2)c2ccc(O)cc2)c1 (stereo unspecified) -24.1%, CNc1nc(CC(C)=O)ns1 -15.9%, CC(=O)c1c(C)nn(-c2ccccc2)c1C 16.4%, CCOC(=O)Cc1csc(CC(N)=O)n1 -12.3%, COCCN(C(=O)CSc1nnc(-c2cccc(F)c2)n1N)c1c(N)n(Cc2ccccc2)c(=O)[nH]c1=O -5%, Cn1c(SCC(=O)c2ccccc2)nnc1-c1cccc(N)c1 -20.5% [at 11.4 µM], O=c1c2[nH]c3ccc(Br)cc3c2ncn1Cc1ccncc1 -7.59%, C/C(=N\NC(=O)C(=O)N/N=C(\C)c1cccc(O)c1)c1cccc(O)c1 -29.7% [at 57.1 µM], CCCC(c1nnnn1CCc1ccccc1)N1CCC(C(N)=O)CC1 (stereo unspecified) 4.09%, COc1ccccc1CN(Cc1cc2c(C)ccc(C)c2[nH]c1=O)Cc1nnnn1Cc1ccco1 -21.9%, COc1ccccc1OCCC(=O)OCC(=O)c1c(N)n(C)c(=O)n(C)c1=O -21.7%
